Source: a compilation of properties of binary mixtures (doi:10.1016/j.molliq.2016.05.033)
The densities may have been worked out from excess volumes.

Experiment: xn = mol fraction of the nth substance listed
Conditions: 101 kPa

CNc1ccccc1 + CCCC[n+]1ccn(C)c1.F[B-](F)(F)F
mass density [kg/m3]
Conditions | x1 = 0.0974 | x1 = 0.2093 | x1 = 0.2979 | x1 = 0.3968 | x1 = 0.5009 | x1 = 0.592 | x1 = 0.697 | x1 = 0.7972 | x1 = 0.8999 | x1 = 1
293.15 K | 1190.4 | – | – | 1146.2 | – | 1107.1 | 1083.9 | 1056.2 | 1027.9 | 986.5
303.15 K | 1183.3 | – | – | 1138.7 | 1119.8 | 1099.4 | 1076.1 | 1048.3 | 1020 | –
313.15 K | – | 1162.8 | 1148.4 | 1131.2 | – | 1091.8 | 1068.3 | 1040.4 | 1011.9 | 970.3
323.15 K | 1168.9 | 1155.6 | 1141.1 | 1123.8 | 1104.6 | – | – | 1032.5 | – | 962.1

CCCC[n+]1ccn(C)c1.F[B-](F)(F)F + CNc1ccccc1
x2 = 0
Conditions | mass density [kg/m3]
293.15 K | 1203.6
303.15 K | 1195.2
313.15 K | 1188
323.15 K | 1181
